{"source": "PubChem BioAssay AID256", "about": "(DTP/NCI, 2004)", "tested_on": "CD2F1 mice, L1210 leukemia ip, survival T/C", "assay": "NCI In Vivo Anticancer Drug Screen. Data for tumor model L1210 Leukemia (intraperitoneal) in CD2F1 (CDF1) mice", "conditions": "higher = longer survival", "summary_of_the_method": "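Vehicle-treated tumor-bearing mice served as controls (C) for compound-treated mice (T). Reported figure is T divided by C.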", "note": "“And” between values parts separate entries of the source, which are not always exact repeats. Identical values can stand only once. Further values from the same series stand in other lists. Inconclusive results and toxic doses are left out.", "data": [{"compound": "O=C1c2ccccc2C(=O)c2c(NCCNCCO)ccc(NCCNCCO)c21", "values": [{"measurement": "T/C", "setting": "endpoint: mean survival time, dose: 0.43 mg/kg/injection, schedule: Q01DX009 (ip), vehicle: Klucel (hydroxypropylcellulose) (HPC)", "result": "106 % of control"}, {"measurement": "T/C", "setting": "endpoint: mean survival time, dose: 0.87 mg/kg/injection, schedule: Q01DX009 (ip), vehicle: Klucel (hydroxypropylcellulose) (HPC)", "result": "122 % of control"}, {"measurement": "T/C", "setting": "endpoint: mean survival time, dose: 1.0 mg/kg/injection, schedule: Q01DX005 (iv), vehicle: saline", "result": "106 % of control"}, {"measurement": "T/C", "setting": "endpoint: mean survival time, dose: 2.0 mg/kg/injection, schedule: Q01DX005 (iv), vehicle: clinical formulation", "result": "105 % of control"}, {"measurement": "T/C", "setting": "endpoint: mean survival time, dose: 2.0 mg/kg/injection, schedule: Q01DX009 (ip), vehicle: acid diluted with saline", "result": "226 % of control"}, {"measurement": "T/C", "setting": "endpoint: mean survival time, dose: 3.5 mg/kg/injection, schedule: Q01DX009 (ip), vehicle: Klucel (hydroxypropylcellulose) (HPC)", "result": "117 % of control"}, {"measurement": "T/C", "setting": "endpoint: mean survival time, dose: 4.0 mg/kg/injection, schedule: Q01DX005 (iv), vehicle: saline", "result": "109 % of control and 112 % of control"}, {"measurement": "T/C", "setting": "endpoint: mean survival time, dose: 4.0 mg/kg/injection, schedule: Q01DX005 (oral), vehicle: acid diluted with saline", "result": "98 % of control and 101 % of control"}, {"measurement": "T/C", "setting": "endpoint: mean survival time, dose: 4.0 mg/kg/injection, schedule: Q01DX005 (oral), vehicle: saline", "result": "104 % of control"}, {"measurement": "T/C", "setting": "endpoint: mean survival time, dose: 4.0 mg/kg/injection, schedule: Q01DX009 (ip), vehicle: acid diluted with saline", "result": "151 % of control and 180 % of control"}, {"measurement": "T/C", "setting": "endpoint: mean survival time, dose: 4.0 mg/kg/injection, schedule: Q01DX009 (ip), vehicle: saline with Tween-80", "result": "207 % of control"}, {"measurement": "T/C", "setting": "endpoint: mean survival time, dose: 7.0 mg/kg/injection, schedule: Q01DX009 (ip), vehicle: Klucel (hydroxypropylcellulose) (HPC)", "result": "119 % of control"}, {"measurement": "T/C", "setting": "endpoint: mean survival time, dose: 8.0 mg/kg/injection, schedule: Q01DX005 (oral), vehicle: acid diluted with saline", "result": "101 % of control and 104 % of control"}, {"measurement": "T/C", "setting": "endpoint: mean survival time, dose: 8.0 mg/kg/injection, schedule: Q01DX009 (ip), vehicle: acid diluted with saline", "result": "228 % of control and 316 % of control"}, {"measurement": "T/C", "setting": "endpoint: mean survival time, dose: 8.0 mg/kg/injection, schedule: Q01DX009 (ip), vehicle: saline with Tween-80", "result": "270 % of control"}, {"measurement": "T/C", "setting": "endpoint: mean survival time, dose: 8.0 mg/kg/injection, schedule: Q04DX003 (iv), vehicle: saline", "result": "108 % of control"}, {"measurement": "T/C", "setting": "endpoint: mean survival time, dose: 11.7 mg/kg/injection, schedule: Q01DX001 (iv), vehicle: saline", "result": "108 % of control"}, {"measurement": "T/C", "setting": "endpoint: mean survival time, dose: 14.0 mg/kg/injection, schedule: Q01DX009 (ip), vehicle: Klucel (hydroxypropylcellulose) (HPC)", "result": "152 % of control"}, {"measurement": "T/C", "setting": "endpoint: mean survival time, dose: 16.0 mg/kg/injection, schedule: Q01DX005 (oral), vehicle: acid diluted with saline", "result": "108 % of control and 96 % of control and 98 % of control"}, {"measurement": "T/C", "setting": "endpoint: mean survival time, dose: 16.0 mg/kg/injection, schedule: Q01DX009 (ip), vehicle: acid diluted with saline", "result": "122 % of control and 365 % of control"}, {"measurement": "T/C", "setting": "endpoint: mean survival time, dose: 16.0 mg/kg/injection, schedule: Q04DX003 (ip), vehicle: water", "result": "105 % of control"}, {"measurement": "T/C", "setting": "endpoint: mean survival time, dose: 16.0 mg/kg/injection, schedule: Q04DX003 (iv), vehicle: saline", "result": "110 % of control"}, {"measurement": "T/C", "setting": "endpoint: mean survival time, dose: 19.4 mg/kg/injection, schedule: Q01DX001 (iv), vehicle: saline", "result": "105 % of control"}, {"measurement": "T/C", "setting": "endpoint: mean survival time, dose: 28.0 mg/kg/injection, schedule: Q01DX009 (ip), vehicle: Klucel (hydroxypropylcellulose) (HPC)", "result": "217 % of control"}, {"measurement": "T/C", "setting": "endpoint: mean survival time, dose: 32.0 mg/kg/injection, schedule: Q01DX005 (oral), vehicle: acid diluted with saline", "result": "101 % of control"}, {"measurement": "T/C", "setting": "endpoint: mean survival time, dose: 32.0 mg/kg/injection, schedule: Q01DX009 (ip), vehicle: saline with Tween-80", "result": "90 % of control"}, {"measurement": "T/C", "setting": "endpoint: mean survival time, dose: 32.0 mg/kg/injection, schedule: Q01DX009 (ip), vehicle: saline", "result": "107 % of control"}, {"measurement": "T/C", "setting": "endpoint: mean survival time, dose: 32.4 mg/kg/injection, schedule: Q01DX001 (iv), vehicle: saline", "result": "107 % of control"}, {"measurement": "T/C", "setting": "endpoint: mean survival time, dose: 64.0 mg/kg/injection, schedule: Q01DX005 (oral), vehicle: acid diluted with saline", "result": "89 % of control and 101 % of control"}, {"measurement": "T/C", "setting": "endpoint: mean survival time, dose: 64.0 mg/kg/injection, schedule: Q01DX005 (oral), vehicle: saline", "result": "104 % of control"}, {"measurement": "T/C", "setting": "endpoint: mean survival time, dose: 95.0 mg/kg/injection, schedule: Q01DX009 (ip), vehicle: Klucel (hydroxypropylcellulose) (HPC)", "result": "86 % of control"}, {"measurement": "T/C", "setting": "endpoint: mean survival time, dose: 128.0 mg/kg/injection, schedule: Q01DX005 (oral), vehicle: acid diluted with saline", "result": "101 % of control and 110 % of control"}, {"measurement": "T/C", "setting": "endpoint: mean survival time, dose: 128.0 mg/kg/injection, schedule: Q01DX005 (oral), vehicle: saline", "result": "109 % of control"}, {"measurement": "T/C", "setting": "endpoint: median survival time, dose: 0.25 mg/kg/injection, schedule: Q01DX009 (ip), vehicle: clinical formulation", "result": "112 % of control"}, {"measurement": "T/C", "setting": "endpoint: median survival time, dose: 1.0 mg/kg/injection, schedule: Q01DX009 (sc), vehicle: saline", "result": "102 % of control"}, {"measurement": "T/C", "setting": "endpoint: median survival time, dose: 2.0 mg/kg/injection, schedule: Q01DX009 (ip), vehicle: saline", "result": "158 % of control"}, {"measurement": "T/C", "setting": "endpoint: median survival time, dose: 2.0 mg/kg/injection, schedule: Q01DX009 (sc), vehicle: saline", "result": "105 % of control"}, {"measurement": "T/C", "setting": "endpoint: median survival time, dose: 4.0 mg/kg/injection, schedule: Q01DX005 (iv), vehicle: water", "result": "110 % of control"}, {"measurement": "T/C", "setting": "endpoint: median survival time, dose: 4.0 mg/kg/injection, schedule: Q01DX009 (ip), vehicle: saline", "result": "160 % of control"}, {"measurement": "T/C", "setting": "endpoint: median survival time, dose: 4.0 mg/kg/injection, schedule: Q01DX009 (oral), vehicle: saline", "result": "115 % of control"}, {"measurement": "T/C", "setting": "endpoint: median survival time, dose: 4.0 mg/kg/injection, schedule: Q01DX009 (sc), vehicle: Klucel (hydroxypropylcellulose) (HPC)", "result": "119 % of control and 123 % of control"}, {"measurement": "T/C", "setting": "endpoint: median survival time, dose: 4.0 mg/kg/injection, schedule: Q01DX009 (sc), vehicle: saline", "result": "103 % of control"}, {"measurement": "T/C", "setting": "endpoint: median survival time, dose: 8.0 mg/kg/injection, schedule: Q01DX005 (oral), vehicle: Klucel (hydroxypropylcellulose) (HPC)", "result": "106 % of control and 102 % of control"}, {"measurement": "T/C", "setting": "endpoint: median survival time, dose: 8.0 mg/kg/injection, schedule: Q01DX009 (ip), vehicle: Klucel (hydroxypropylcellulose) (HPC)", "result": "177 % of control and 370 % of control"}, {"measurement": "T/C", "setting": "endpoint: median survival time, dose: 8.0 mg/kg/injection, schedule: Q01DX009 (ip), vehicle: saline", "result": "200 % of control"}, {"measurement": "T/C", "setting": "endpoint: median survival time, dose: 8.0 mg/kg/injection, schedule: Q01DX009 (oral), vehicle: saline", "result": "115 % of control"}, {"measurement": "T/C", "setting": "endpoint: median survival time, dose: 8.0 mg/kg/injection, schedule: Q01DX009 (sc), vehicle: saline", "result": "105 % of control"}, {"measurement": "T/C", "setting": "endpoint: median survival time, dose: 16.0 mg/kg/injection, schedule: Q01DX005 (oral), vehicle: Klucel (hydroxypropylcellulose) (HPC)", "result": "100 % of control"}, {"measurement": "T/C", "setting": "endpoint: median survival time, dose: 16.0 mg/kg/injection, schedule: Q01DX009 (ip), vehicle: Klucel (hydroxypropylcellulose) (HPC)", "result": "174 % of control and 370 % of control"}, {"measurement": "T/C", "setting": "endpoint: median survival time, dose: 16.0 mg/kg/injection, schedule: Q01DX009 (ip), vehicle: saline", "result": "191 % of control"}, {"measurement": "T/C", "setting": "endpoint: median survival time, dose: 16.0 mg/kg/injection, schedule: Q01DX009 (oral), vehicle: saline", "result": "105 % of control"}, {"measurement": "T/C", "setting": "endpoint: median survival time, dose: 16.0 mg/kg/injection, schedule: Q01DX009 (sc), vehicle: Klucel (hydroxypropylcellulose) (HPC)", "result": "186 % of control"}, {"measurement": "T/C", "setting": "endpoint: median survival time, dose: 32.0 mg/kg/injection, schedule: Q01DX005 (oral), vehicle: Klucel (hydroxypropylcellulose) (HPC)", "result": "100 % of control"}, {"measurement": "T/C", "setting": "endpoint: median survival time, dose: 32.0 mg/kg/injection, schedule: Q01DX009 (ip), vehicle: Klucel (hydroxypropylcellulose) (HPC)", "result": "113 % of control and 209 % of control"}, {"measurement": "T/C", "setting": "endpoint: median survival time, dose: 32.0 mg/kg/injection, schedule: Q01DX009 (oral), vehicle: saline", "result": "105 % of control"}, {"measurement": "T/C", "setting": "endpoint: median survival time, dose: 64.0 mg/kg/injection, schedule: Q01DX005 (oral), vehicle: Klucel (hydroxypropylcellulose) (HPC)", "result": "104 % of control"}, {"measurement": "T/C", "setting": "endpoint: median survival time, dose: 64.0 mg/kg/injection, schedule: Q01DX009 (ip), vehicle: saline", "result": "97 % of control"}, {"measurement": "T/C", "setting": "endpoint: median survival time, dose: 64.0 mg/kg/injection, schedule: Q01DX009 (oral), vehicle: saline", "result": "110 % of control"}, {"measurement": "T/C", "setting": "endpoint: median survival time, dose: 128.0 mg/kg/injection, schedule: Q01DX005 (oral), vehicle: Klucel (hydroxypropylcellulose) (HPC)", "result": "108 % of control and 106 % of control"}, {"measurement": "T/C", "setting": "endpoint: median survival time, dose: 128.0 mg/kg/injection, schedule: Q01DX009 (oral), vehicle: saline", "result": "110 % of control"}, {"measurement": "T/C", "setting": "endpoint: median survival time, dose: 128.0 mg/kg/injection, schedule: Q01DX009 (sc), vehicle: Klucel (hydroxypropylcellulose) (HPC)", "result": "197 % of control"}, {"measurement": "T/C", "setting": "endpoint: median survival time, dose: 256.0 mg/kg/injection, schedule: Q01DX005 (oral), vehicle: Klucel (hydroxypropylcellulose) (HPC)", "result": "108 % of control"}, {"measurement": "T/C", "setting": "endpoint: median survival time, dose: 256.0 mg/kg/injection, schedule: Q01DX009 (oral), vehicle: saline", "result": "112 % of control"}, {"measurement": "T/C", "setting": "endpoint: median survival time, dose: 512.0 mg/kg/injection, schedule: Q01DX009 (oral), vehicle: saline", "result": "101 % of control"}]}]}
